Measurements as given in PubChem BioAssay AID463173 (ICCB-Longwood Screening Facility, Harvard Medical School, 2010).
Hit rate of the full screen: of about 52,000 compounds, about 4,300 (8.3%) were called active. Rule as the data show it: active = survival mostly below about 52% (no sharp cut-off); inactive = mostly above about 56%. The list shows a part of the results.

These molecules were tested on DeltatarO mutant (assay: S. aureus survival, RN4220 and DeltatarO strains – OD600, teichoic acid synthesis inhibitors, primary screen (AID 463173)). Details: S. aureus RN4220 wild type/DeltatarO growth, OD600, 18 h, active compounds read low, screened at 18.75 µg/mL (by protocol).

Compound | survival
COc1ccc(CCN2CCC(CNC(=O)c3cnn(-c4ccc(C)cc4)c3C3CCN(C(=O)OC(C)(C)C)CC3)CC2)cc1 | inactive: 125%
CCN1CCN(CCC(=O)Nc2ccc(F)cc2)CC1 | inactive: 100%
O=C(CC(=O)NN=C1CCCC1)NCc1ccccc1 | inactive: 98%
COc1cc(C(=O)N2CCN(CCc3ccncc3)CC2)cc(OC)c1OC | inactive: 89%
COc1cccc(-n2c(=O)c3c(C)c(C(=O)N(C)C)sc3n(Cc3cccc(C)c3)c2=O)c1 | active: 37%
CC(C)(C)c1cc(-c2ccccc2)n[nH]1 | inactive: 102%
Cc1nc2ccccc2n1C(C)c1ccccc1 (centres undefined) | inactive: 77%
CCC(=O)OCc1cnc(C)c2oc(=O)c(C(=O)Nc3ccc(CC)cc3)cc12 | inactive: 130%
CC(NC(=O)C1CCN(C(=O)N2CCOc3ccc(Cl)cc32)CC1)c1ccccc1 (centres undefined) | inactive: 50%
Cc1[nH]c(=O)[nH]c(=O)c1Oc1ccccc1 | inactive: 103%
COc1ccc(-c2nc3c(c(SCc4cc(C)ccc4C)n2)Cc2c(CO)cnc(C)c2O3)cc1 | inactive: 83%
COc1ccc(N2CCN(C(=O)c3nn(C)c4c3CS(=O)(=O)c3ccccc3-4)CC2)cc1 | inactive: 69%
COc1ccc(CCNC(=O)CS(=O)Cc2nc(-c3ccc(C)cc3)oc2C)cc1OC (centres undefined) | inactive: 76%
O=C(CCSCc1ccc(Cl)cc1)N1CCN(c2ccccc2F)CC1 | inactive: 77%
CCN(c1ccccc1)S(=O)(=O)c1ccc(NC(=O)c2cc(=O)c3ccc(C)c(C)c3o2)cc1 | inactive: 64%
Cc1ccc2c(CC(=O)Nc3c(C(=O)c4ccc(F)cc4)oc4ccccc34)coc2c1 | inactive: 60%
CCOC(=O)c1ccc(NC(=O)CCc2c(C)n(CC)c3cc(-c4ccccc4OC)nn3c2=O)cc1 | inactive: 92%
CCOC(=O)c1[nH]c(C)c(CCC(=O)NCc2ccc(C)cc2)c1C | inactive: 75%
CCc1cccc(-n2c(=O)c3cccnc3n2CC(=O)NCc2ccccc2Cl)c1 | inactive: 95%
COc1ccccc1Nc1nn2c(=O)c3ccc(C(=O)Nc4ccc(F)cc4)cc3nc2s1 | inactive: 86%
CCCN1C(=O)c2ccccc2NC1c1cc(OC)c(OC)c(OC)c1 (centres undefined) | inactive: 96%
NC(=O)c1cc(S(=O)(=O)NCc2ccc(Br)cc2)cs1 | inactive: 99%
CN1C(=O)N(C)C2(CC1(C)C)CC(C)(C)N(C)C(=O)N2C | inactive: 102%

Compound | survival
CCOc1ccc2oc(=O)cc(CN3CCN(C(=O)c4cccc(F)c4)CC3)c2c1 | active: 31%
CCCN(CCC)CCNC(=O)Cn1ncc2c([nH]c3ccc(C)cc32)c1=O | inactive: 74%
CC(=O)N1c2ccccc2NC(=O)C1CC(=O)Nc1cccc(C)c1 (centres undefined) | inactive: 100%
CC1CCN(S(=O)(=O)c2cc(C(=O)NCCc3ccccc3)n(C)c2)CC1 | inactive: 89%
Cc1ccc(C)c(N2CCN(C(=O)c3cc4cc5ccc(C)cc5nc4s3)CC2)c1 | inactive: 95%
CC(C)(C)c1ccc(C(=O)Nc2cc(-c3ccccc3)nn2-c2ccccc2)cc1 | inactive: 83%
COc1ccc(N2CCN(C(=O)c3ccc(NC(=O)c4nsc5ccccc45)cc3)CC2)cc1 | inactive: 84%
O=C(/C=C\c1ccc2c(c1)OCO2)NC1CC(=O)N(c2ccc(F)cc2)C1 (centres undefined) | inactive: 80%
CCOCCCNC(=O)c1cc2c(=O)n3ccccc3nc2s1 | inactive: 89%
CCOc1ccc(-n2c(=O)c3c4c(sc3n(Cc3cc(=O)n5cc(Cl)ccc5n3)c2=O)CCC4)cc1 | active: 64%
CCc1ccc(NC(=O)Cn2c(=O)n(Cc3nc(C)no3)c(=O)c3cc4c(cc32)OCO4)cc1 | inactive: 82%
COc1ccccc1NC(=O)CSc1nnc(-c2nonc2NC(C)=O)n1-c1ccccc1 | inactive: 63%
CN1CCN(C(=O)c2ccc(C(C)(C)C)cc2)CC1 | inactive: 90%
Cc1ccc(CNc2nc3c(S(=O)(=O)c4ccc(C)c(C)c4)nnn3c3ccc(Cl)cc23)cc1 | inactive: 87%
O=C(O)C1CC=CCC1C(=O)N(Cc1ccccc1)c1ccccc1 (centres undefined) | inactive: 77%
O=C(CN1CCN(c2ccc(Cl)cc2)CC1)Nc1ccc(Cl)c(C(F)(F)F)c1 | inactive: 85%
Cc1ccc(CNC(=O)CCn2ccc3cc(S(=O)(=O)N4CCCC4)ccc32)cc1 | inactive: 68%
COc1cc(-c2nc3cc(Cl)ccc3o2)cc(OC)c1OC | inactive: 87%
Cc1cccc(-c2nc(CCNC(=O)c3ccccc3Br)cs2)c1 | inactive: 128%
CCOC(=O)c1ccccc1NC(=O)N1CCCN(S(=O)(=O)c2ccc3c(ccn3CC)c2)CC1 | inactive: 70%
CCOc1ccc2nc(NCCNC(=O)Nc3ccc(SC)cc3)c(C#N)cc2c1 | inactive: 100%
CCc1ccc(CNC(=O)C2CCCN(c3nn4cc(-c5ccc(F)cc5)nc4s3)C2)cc1 (centres undefined) | inactive: 71%
O=C(Nc1cc(F)ccc1F)c1ccc2c(c1)nnn2C1CCCC1 | inactive: 77%

Compound | survival
CCOc1ccc(-c2nc3c(C#N)c[nH]n3c2NC2CCCCC2)cc1 | inactive: 52%
CCOC(=O)C1CCN(C(=O)C2CCN(c3nnc(C)c4c(C)n(-c5ccccc5)nc34)CC2)CC1 | inactive: 116%
Cc1nn(CC(=O)NCc2ccccc2Cl)c(=O)c2cccn12 | inactive: 91%
CCCC(=O)Nc1cc(C(=O)NCc2ccc(OC)cc2)ccc1S(=O)(=O)c1ccc(Cl)cc1 | inactive: 73%
COc1ccc(NC(=O)CSc2nnc3scc(-c4ccc(Cl)cc4)n23)cc1 | inactive: 95%
CCOC(=O)c1c(C)c(-c2ccccc2)n(CC(=O)Nc2cccc(F)c2)c1C | inactive: 75%
COC(=O)c1sccc1S(=O)(=O)N(CC(=O)NCc1ccccc1)c1ccc(C)c(C)c1 | inactive: 55%
Cn1nnnc1SCCNCc1ccc(OCc2ccccc2)cc1 | inactive: 72%
Cc1cccc(NC(=O)CN2C(=O)COc3ccc(S(=O)(=O)N4CCC(C)CC4)cc32)c1C | inactive: 82%
CCN(CC)CCCNC(=O)c1nn(-c2ccc(OC)c(Cl)c2)c(=O)c2c1c1ccccc1n2C | inactive: 126%
Cc1ccc(S(=O)(=O)N(CC(=O)N2CCc3ccccc3C2)c2ccc(C)c(C)c2)cc1 | inactive: 55%
Cc1ccc(N2CCN(S(=O)(=O)N3CCOCC3)CC2)cc1Cl | inactive: 94%
Cc1ccc(CNC(=O)Cn2c(=O)n(-c3ccc(C)c(F)c3)c(=O)c3sc4ccccc4c32)cc1 | inactive: 75%
O=C(Nc1noc2ccccc12)c1c(F)cccc1F | inactive: 87%
Cc1cccc(NC(=O)CN2c3ccccc3S(=O)(=O)c3ccccc32)c1C | active: 0%
CCc1nn(CC(=O)NCc2ccc(OC)cc2OC)c(=O)c2cc3c(OC)cccc3n12 | inactive: 68%
CCC(=O)N1CCc2cc(S(=O)(=O)NC(C(=O)NCCc3ccc(Cl)cc3)C(C)C)ccc21 (centres undefined) | inactive: 99%
COc1ccc(-c2cc(OC(=O)c3ccc(F)cc3)c3c(C)oc(C)c3c(=O)c2)cc1OC | inactive: 79%
O=C(Nc1ccc(N2CCCCC2)cc1)c1cccs1 | inactive: 88%
Cc1ccc(Cc2c(C)nn(-c3nc(C)c(C(=O)N4CCCCC4C)s3)c2C)cc1 (centres undefined) | inactive: 54%
COc1ccc(-c2noc(CSc3nnc(-c4ccccc4)n3-c3ccc(F)cc3)n2)c(OC)c1 | inactive: 88%
COc1ccc(NC(=O)C2CCCN(S(=O)(=O)c3c(C)n[nH]c3C)C2)cc1OC (centres undefined) | inactive: 125%
O=C(COCc1cc(-c2cccs2)on1)NCc1ccccc1Cl | inactive: 74%

Compound | survival
O=C1C=C(NCc2ccc(Cl)cc2)CC(c2ccco2)C1 (centres undefined) | inactive: 110%
COc1cc(C2c3c(oc4ccccc4c3=O)C(=O)N2c2nc(C)c(C)s2)ccc1O (centres undefined) | inactive: 51%
Cc1c(C(=O)OC2CCCCC2)[nH]c2c1C(=O)CC(c1ccccc1Cl)C2 (centres undefined) | inactive: 86%
O=C(NCc1ccccc1F)C1CCN(Cc2cc3ccccc3n2Cc2cccc(Cl)c2)CC1 | inactive: 78%
Cc1cccn2c(=O)c(/C=C(\C#N)c3nc4ccccc4s3)c(Oc3ccc(Br)cc3)nc12 | inactive: 133%
Cn1c(=O)oc2cc(S(=O)(=O)CCC(=O)NCCc3ccccc3)ccc21 | inactive: 96%
CCCOC(=O)c1ccc2c(c1)C(=O)N(c1ccccc1)C2=O | inactive: 78%
Cc1ccccc1NC(=O)Nc1ccc2nc(N3CCN(C)CC3)cc(C)c2c1 | inactive: 88%
CC(=O)c1cc(-c2ccc(F)cc2)n(CC(=O)NC(C)c2ccccc2)c1C (centres undefined) | inactive: 74%
Cc1ccc(C)c(N2CCN(c3nccn4nc(-c5ccc(Br)cc5)cc34)CC2)c1 | inactive: 232%
Cc1ccc(Cl)cc1NC(=O)C(NS(=O)(=O)c1cccc2nsnc12)c1ccccc1 (centres undefined) | inactive: 68%
CC(C)(C)c1ccc(CSc2nnc(-c3ccco3)n2-c2ccccc2)cc1 | inactive: 96%
COc1ccc(NC(=O)C2CCCN(S(=O)(=O)c3ccc(Cl)cc3)C2)cc1 (centres undefined) | inactive: 76%
COc1cc(Nc2nc(SCc3cccc(Cl)c3)nc3ccccc23)cc(OC)c1 | active: 37%
Cc1nc2c(c(C)nn2-c2ccccc2)c(C)c1CCC(=O)Nc1ccc(F)cc1 | inactive: 92%
Cc1ccc2nc(-c3ccc(NC(=O)C(F)(F)F)cc3)sc2c1 | inactive: 98%
Fc1ccc(Nc2c3c(nc4nncn24)CCC3)cc1 | inactive: 74%
Cc1cc(C)n(-c2nnc(Nc3ccc(C(C)C)cc3)c3ccccc23)n1 | inactive: 80%
COc1cccc(C(=O)NC(=O)Nc2ccc(-n3nc(C(F)(F)F)cc3C(F)(F)F)cc2)c1 | inactive: 81%
COc1ccc(CNCc2ccc3c(c2)n(C)c(=O)n3C)cc1 | inactive: 84%
